# Test results from PubChem BioAssay AID1345082 (National Center for Advancing Translational Sciences (NCATS), 2018).
# About 4,000 (4.3%) of roughly 94,000 compounds were called active. Inconclusive results, whose numbers are uncertain, are shown with a selection of clear calls. Calls follow the shape of the dose curve; as a rule, active = well fitted inhibition curve with a large enough effect; inconclusive = small, poorly fitted or top-dose-only effect; inactive = no such curve, though single readings can be large or run the other way. Potencies of inconclusive entries are doubtful fits and often do not repeat.
# Test: Cytotoxic Profiling in NIH 3T3 Cell Line of Diverse Libraries Using Quantitative High-Throughput Screening; also: nearly all actives have a fitted effect of over 55% in size
# Conditions: NIH 3T3 viability, CellTiter-Glo ATP luminescence, 48-72 h; activity change, negative = cytotoxicity: at 96.7 µM (top of the series) unless noted; series mostly up to 96.7 µM
# Summary of the method: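 Viability of NIH 3T3 cells after 48 or 72 hr compound treatment at 37 °C was assessed by CellTiter-Glo, with luminescence imaged following a 10 min room-temperature step.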
# % is scaled to controls: 0 for no effect and ±100 for the full control effect; potency is read from the fitted curve at half-maximal effect; tags tell the direction and shape of the fitted curve.
SMILES,"activity change, negative = cytotoxicity",Potency,outcome
O=C(NC1CCCN(CCn2nc3n(c2=O)CCCC3)C1)c1ccc(Cl)cc1 (stereo unspecified),inactive: -24.8%,,
Cc1nn(-c2ccccc2)c2c1C(C1CC1)N(C1CCCN([S+](=O)([O-])c3c(C)noc3C)C1)C2=O (stereo unspecified),inactive: -21.6%,,
Cc1ccc(NC(=O)c2cc3n(n2)CC(c2ccc4c(c2)OCO4)OC3)cc1F (stereo unspecified),inactive: -25.6%,,
C=CCOC(=O)Nc1nc2c(s1)C[C@@H]1[C@](C)(CO)[C@H](O)CC[C@@]1(C)[C@@H]2CC(=O)N1CCCCC1,inactive: -15.5%,,
CNc1ncccc1C(=O)N1CCCC2(C=Cc3ccccc3O2)CC1 (stereo unspecified),,"inconclusive: 89.1 µM [inhibitor, single point]",
CN(C)c1ccc(CN2CCC3(C2)C(=O)N(Cc2ccccc2)c2ccccc23)cc1 (stereo unspecified),,"inconclusive: 44.7 µM [inhibitor, partial curve, poor fit]",
CCc1cccc(NC(=O)Cn2c(-c3cccc(Cl)c3)nc(C)c(CCO)c2=O)c1,,"inconclusive: 44.7 µM [inhibitor, partial curve, poor fit]",
Cc1cnc(CC2CCNC2)n1C(C)C (stereo unspecified),inactive: -13.8%,,
CCOc1cc(=O)n2c(c1C(=O)Nc1cc(OC)ccc1OC)CCCC2,,"inconclusive: 7.08 µM [inhibitor, full curve, poor fit]",
Cc1ccc(NC(=O)Cn2ccn3nc(-c4ccccc4)c(CO)c3c2=O)cc1F,,"inconclusive: 50.1 µM [inhibitor, partial curve, poor fit]",
COc1ccccc1C(=O)N1CCc2nc(C)nc(-c3ccc(Cl)cc3)c2C1,,"inconclusive: 70.8 µM [inhibitor, single point]",
O=C(NCc1ccccc1)[C@@H]1Cc2nc[nH]c2CN1Cc1cc2ccccc2o1,,"inconclusive: 112 µM [inhibitor, partial curve, poor fit]",
COCCN1C(=O)CCc2cc(NC(=O)COC)ccc21,inactive: 0.0361%,,
CCc1ccc(CN2CCC(C(=O)Nc3ccc(Oc4cccnc4)cc3)CC2)o1,,"inconclusive: 50.1 µM [inhibitor, partial curve, poor fit]",
O=C(NCc1ccccc1)C1=NO[C@@H]2CN(Cc3cccc(F)c3)C[C@H]12,,"inconclusive: 25.1 µM [inhibitor, full curve, poor fit]",
CCOC(=O)C1CCN(C(=O)c2nc3sccn3c2-c2ccc(C(F)(F)F)cc2)CC1,,"inconclusive: 50.1 µM [inhibitor, partial curve, poor fit]",
O=C(Cc1ccccn1)NCCNC(=O)c1ccc(-c2cncnc2)cc1,,"inconclusive: 44.7 µM [inhibitor, partial curve, poor fit]",
Cc1n[nH]c(C)c1CCC(=O)NC1CCCc2c1[nH]c1ccc(F)cc21 (stereo unspecified),,"inconclusive: 44.7 µM [inhibitor, partial curve, poor fit]",
COC(=O)[C@H](Cc1ccc(OC)cc1)NC(=O)[C@H]1CN(C(C)=O)CCN1S(=O)(=O)c1ccccc1,,active: 44.7 µM,
CCN(Cc1ccncc1)C(=O)c1ccc2c(c1)C(O)CCCCCN2CCOC (stereo unspecified),,"inconclusive: 44.7 µM [inhibitor, partial curve, poor fit]",
O=C1NCCCCCCN(Cc2ccncc2)[C@@H]2CN(C(=O)C3CCCCC3)CC[C@@H]12,,"inconclusive: 39.8 µM [inhibitor, partial curve, poor fit]",

SMILES,"activity change, negative = cytotoxicity",Potency,outcome
Cc1nn(-c2ccccc2)c2c1C(C1CC1)N(C1CN(C(=O)Cc3cccc(Cl)c3)C1)C2=O (stereo unspecified),,"inconclusive: 25.1 µM [inhibitor, full curve]",
Cc1nnc2ccc(N3CCCC(NC(=O)c4cccc(Cl)c4)C3)nn12 (stereo unspecified),,"inconclusive: 20 µM [inhibitor, partial curve, poor fit]",
Cc1cc(C)cc(C(=O)N2CCC(n3cc(-c4nc(-c5ccccc5)no4)nn3)C2)c1 (stereo unspecified),,"inconclusive: 44.7 µM [inhibitor, partial curve, poor fit]",
CC(Cc1ccc2c(c1)OCO2)CN1CCC(CO)(CN2CCCC2)CC1 (stereo unspecified),,active: 39.8 µM,
COc1cc(NC(=O)C2CCc3ncc(-c4ccsc4)n3C2)cc(OC)c1 (stereo unspecified),,"inconclusive: 50.1 µM [inhibitor, partial curve, poor fit]",
Cc1ccc2c(c1)nc1n2[C@@H](CNCc2ccc(S(C)(=O)=O)cc2)COC1,,"inconclusive: 50.1 µM [inhibitor, full curve]",
CC(C)N1CCOC(CC(=O)NCc2cc(N3CCOCC3)ncn2)C1 (stereo unspecified),inactive: -2.55%,,
O=C(CCC1CCN(S(=O)(=O)c2ccccc2)CC1)N1CCCC1,,"inconclusive: 44.7 µM [inhibitor, partial curve, poor fit]",
CC(C)(C)C(=O)N1C[C@H]2OC(=O)N(CCc3cccc(Cl)c3)[C@H]2C1,,,inactive
Cc1cc(C)nc(N2CCC(COc3ccc4c(cnn4CCC(=O)O)c3)CC2)n1,inactive: -26.4% [at 138 µM],,
Cc1cccn2c(CC(=O)N[C@H](c3ccccn3)C3CC(O)C3)cnc12 (stereo partly specified),inactive: -5.83%,,
O=c1[nH]nc2n1CCN(Cc1ccsc1)CC2,,,inactive
COc1ccc(NC(=O)N2Cc3[nH]cnc3C[C@H]2c2nc(-c3ccc(C(F)(F)F)cc3)no2)cc1,,"inconclusive: 89.1 µM [inhibitor, partial curve, poor fit]",
COc1ccc(-c2cc(N3CCCC(NC(=O)c4cccc(NC(C)=O)c4)C3)n[nH]2)cc1 (stereo unspecified),,"inconclusive: 8.91 µM [inhibitor, partial curve, poor fit]",
COc1ccc(CC(=O)N2CCC(N3CC4CC(C3)[C@H]3CCCC(=O)N3C4)CC2)cc1Cl (stereo partly specified),inactive: -3.31%,,
CN(C)c1cccc(C(=O)N2CCC(c3n[nH]c(=O)n3-c3ccccc3)CC2)c1,inactive: -19.6%,,
O=C(c1ccccc1F)N1CCC2(CC1)C(=NC1CCCC1)NC(=O)N2c1cccnc1,,active: 35.5 µM,
O=c1n(CC2CC2)nc2n1CCN(S(=O)(=O)Cc1ccccc1)CC2,inactive: -20.8%,,
COc1cccc(C(=O)N2CCC(N3C[C@H](O)C[C@H]3C(=O)N3CC=C(c4ccccc4)CC3)CC2)c1,inactive: -27.9%,,
COc1cccc(C(CC(=O)NCCc2ccc(OC)c(OC)c2)c2c[nH]c3ccccc23)c1 (stereo unspecified),,"inconclusive: 35.5 µM [inhibitor, partial curve, poor fit]",
COc1ccccc1-c1ccc(C(=O)N2CCC(C(=O)NCc3ccc(F)cc3)CC2)cc1,,"inconclusive: 44.7 µM [inhibitor, partial curve, poor fit]",

SMILES,"activity change, negative = cytotoxicity",Potency,outcome
Cc1nc(-c2ccc(Cl)cc2)n(Cc2cc(F)cc(F)c2)c(=O)c1CCO,,"inconclusive: 50.1 µM [inhibitor, partial curve, poor fit]",
Cc1ccc(NC(=O)c2ccc3c(c2)N(C)C2CCCCCN2C3=O)cc1 (stereo unspecified),,"inconclusive: 70.8 µM [inhibitor, single point]",
COc1ccc(-c2noc([C@@H]3CCCN3C(=O)c3cc(Cl)ccc3OC)n2)cc1,,"inconclusive: 28.2 µM [inhibitor, full curve, poor fit]",
COc1ncccc1-c1cnc2[nH]cc(CC(=O)N(C)Cc3ccccc3)c2c1,,"inconclusive: 44.7 µM [inhibitor, partial curve, poor fit]",
O=C(NCCCc1ccccc1)c1cn2cc(-c3cccc(C(F)(F)F)c3)sc2n1,,"inconclusive: 35.5 µM [inhibitor, partial curve]",
Cc1cc(C)cc(NC2=N[C@H]3[C@@H](O)[C@H](O)C[C@H](C(=O)NCCN4CCCCC4)[C@H]3S2)c1,inactive: -2.89%,,
O=C(CC[C@@H]1CNC(=O)[C@@H]2C[C@H](NCc3ccc(F)cc3)CN12)NCc1ccc(F)cc1,,"inconclusive: 89.1 µM [inhibitor, partial curve, poor fit]",
COc1cccc(CN2C(=O)OC3(CCN(C(=O)C4CCOCC4)CC3)C2(C)c2cccnc2)c1 (stereo unspecified),,"inconclusive: 39.8 µM [inhibitor, partial curve, poor fit]",
CC[C@H]1CN(Cc2ccc(OC)cc2O)CC[C@H]1CC(=O)N1CCOCC1,inactive: 2.84% [at 174 µM],,
COc1ccc(C(=O)N2CCCC(n3cc(-c4nc(-c5ccccc5)no4)nn3)C2)cc1 (stereo unspecified),,"inconclusive: 10 µM [inhibitor, partial curve, poor fit]",
C=CCn1cc2c3c(cccc31)[C@H](CC(C)C)N[C@H](C(=O)NCc1ccc(OC)cc1)C2,inactive: -11% [at 174 µM],,
Cn1ncc2c(C(=O)NCc3ccc(C(F)(F)F)cc3)cc(-c3ccccc3C(F)(F)F)nc21,,"inconclusive: 10 µM [inhibitor, full curve, poor fit]",
CC(=O)Nc1ccc(CN(Cc2ccc(NC(C)=O)cc2)C[C@H]2C[C@@H]3CCN2C[C@@H]3c2cc(-c3ccco3)nc(C)n2)cc1,inactive: 0.27%,,
O=C(CO[C@H]1CN(Cc2ccc(C(=O)O)cc2)C[C@H]1F)Nc1ccccc1O,,,inactive [at 174 µM]
COc1ccc(-c2nc(C(C)C)nc3c2CN(C(=O)c2ccccc2F)CC3)cc1,,"inconclusive: 28.2 µM [inhibitor, partial curve]",
COc1ccc(Cl)cc1-c1ccc2c(c1)C(=O)N1C[C@H](O)C[C@H]1C(=O)N2,,"inconclusive: 89.1 µM [inhibitor, partial curve]",
CN1CCN(C(=O)c2cc(-c3cccc(C(F)(F)F)c3)c3nncn3n2)CC1,,"inconclusive: 56.2 µM [inhibitor, partial curve, poor fit]",
Cc1noc(C)c1Cc1ccc(C(=O)N2CCC(c3nc(CCOCC4CC4)no3)C2)o1 (stereo unspecified),,"inconclusive: 50.1 µM [inhibitor, single point]",
CCOc1ccccc1CN1CCC2(CCN(C(=O)c3ccccc3C)CC2)Oc2ccccc21,,"inconclusive: 31.6 µM [inhibitor, partial curve, poor fit]",
